Consider four compounds from PubChem BioAssay (NCI).

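Assay format: 96-well plates, 48-hour exposure. GI50 is the concentration that inhibits growth by half. TGI: concentration producing complete growth inhibition.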 A value given as a limit tells only on which side of the number the result lay.

The assay relates to NCI-H322M lung. As to the kind of experiment: NCI-60 cell line screen, 48 h.
`COc1ccc(N2CCN(C3=C(Cl)C(=O)c4ncccc4C3=O)CC2)cc1`: the GI50 was 15.3 µM and the TGI stood at 28.7 µM.
As to `CC1=C2C(=C[C@@](C)(COS(C)(=O)=O)[C@@H]2O)C(=O)[C@](C)(O)C12CC2`, the GI50 was 0.953 µM and the TGI is 6.15 µM.
Turning to `C#Cc1nc(C(=O)NCCCCCCC(=O)NO)cs1`, the GI50 was 2.21 µM and the TGI stood at 16.4 µM.
As for `O=C(/C=C/c1csc(Br)n1)NO`, the GI50 was 2.91 µM and the TGI was > 100 µM.
